Some of the results follow. Interaction screen of human proteins with wild-type SARS-CoV-2 proteins by split-DHFR complementation in yeast, 1 µg/mL methotrexate. Value = fitness of the pair (three or more lineages) minus that of the viral protein without a human partner, on a scale set by negative (0) and fused positive (1) controls, mean of up to three cultures; higher = more likely to interact. Active = false discovery rate below 0.05 (one-sided t-test) in at least one culture. Nearly all pairs are not hits, and differences among them are mostly noise (correlation between cultures about 0.3); most hits were seen in one culture only. Human sequences are the Swiss-Prot entries looked up by gene name; the clone may be another isoform. NSP2 values were corrected by the authors for a growth advantage. Listed are human proteins with a hit and a random twelfth of the others.
Experiments:
Assay in all cases: yeast fitness gain over the viral ORF with no human partner (scaled fitness); higher = more likely to interact
SARS-CoV-2 NSP12 = molecular target: SARS-CoV-2 NSP12
Method: (§1)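 Split mouse DHFR complementation in pooled diploid yeast: human ORFeome clones carry one fragment and viral ORFs the other; barcoded lineages compete in 1 µg/mL methotrexate and fitness is read by barcode sequencing in up to three cultures.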

SARS-CoV-2 NSP13 = molecular target: SARS-CoV-2 NSP13
Method: as §1

SARS-CoV-2 NSP2 = molecular target: SARS-CoV-2 NSP2
Method: as §1

SARS-CoV-2 NSP5 = molecular target: SARS-CoV-2 NSP5
Method: as §1

SARS-CoV-2 NSP7 = molecular target: SARS-CoV-2 NSP7
Method: as §1

SARS-CoV-2 NSP8 = molecular target: SARS-CoV-2 NSP8
Method: as §1

SARS-CoV-2 ORF10 = molecular target: SARS-CoV-2 ORF10
Method: as §1

SARS-CoV-2 ORF6 = molecular target: SARS-CoV-2 ORF6
Method: as §1

SARS-CoV-2 ORF7A = molecular target: SARS-CoV-2 ORF7A
Method: as §1

SARS-CoV-2 ORF7B = molecular target: SARS-CoV-2 ORF7B
Method: as §1

SARS-CoV-2 ORF8 = molecular target: SARS-CoV-2 ORF8
Method: as §1

SARS-CoV-2 ORF9B = molecular target: SARS-CoV-2 ORF9B
Method: as §1

SARS-CoV-2 S = molecular target: SARS-CoV-2 S
Method: as §1

SARS-CoV-2 ORF3B = molecular target: SARS-CoV-2 ORF3B
Method: as §1

SARS-CoV-2 NSP6 = molecular target: SARS-CoV-2 NSP6
Method: as §1

Measured: yeast fitness gain

B1: ALKBH2, Q6NS38 (protein)
chain: MDRFLVKGAQGGLLRKQEEQEPTGEEPAVLGGDKESTRKRPRREAPGNGGHSAGPSWRHIRAEGLDCSYTVLFGKAEADEIFQELEKEVEYFTGALARVQVFGKWHSVPRKQATYGDAGLTYTFSGLTLSPKPWIPVLERIRDHVSGVTGQTFNFVLINRYKDGCDHIGEHRDDERELAPGSPIASVSFGACRDFVFRHKDSRGKSPSRRVAVVRLPLAHGSLLMMNHPTNTHWYHSLPVRKKVLAPRVNLTFRKILLTKK
inactive: SARS-CoV-2 NSP12 = -0.121 | SARS-CoV-2 NSP13 = 0.0266 | SARS-CoV-2 NSP2 = -0.207 | SARS-CoV-2 NSP5 = 0.0141 | SARS-CoV-2 NSP7 = -0.0291 | SARS-CoV-2 NSP8 = 0.0235 | SARS-CoV-2 ORF10 = 0.0796 | SARS-CoV-2 ORF6 = -0.102 | SARS-CoV-2 ORF7A -0.00767 | SARS-CoV-2 ORF7B -0.01 | SARS-CoV-2 ORF8 = 0.0172 | SARS-CoV-2 ORF9B -0.113 | SARS-CoV-2 S -0.45

B2: HDC, P19113 (protein)
chain: MMEPEEYRERGREMVDYICQYLSTVRERRVTPDVQPGYLRAQLPESAPEDPDSWDSIFGDIERIIMPGVVHWQSPHMHAYYPALTSWPSLLGDMLADAINCLGFTWASSPACTELEMNVMDWLAKMLGLPEHFLHHHPSSQGGGVLQSTVSESTLIALLAARKNKILEMKTSEPDADESCLNARLVAYASDQAHSSVEKAGLISLVKMKFLPVDDNFSLRGEALQKAIEEDKQRGLVPVFVCATLGTTGVCAFDCLSELGPICAREGLWLHIDAAYAGTAFLCPEFRGFLKGIEYADSFTFNPSKWMMVHFDCTGFWVKDKYKLQQTFSVNPIYLRHANSGVATDFMHWQIPLSRRFRSVKLWFVIRSFGVKNLQAHVRHGTEMAKYFESLVRNDPSFEIPAKRHLGLVVFRLKGPNCLTENVLKEIAKAGRLFLIPATIQDKLIIRFTVTSQFTTRDDILRDWNLIRDAATLILSQHCTSQPSPRVGNLISQIRGARAWACGTSLQSVSGAGDDPVQARKIIKQPQRVGAGPMKRENGLHLETLLDPVDDCFSEEAPDATKHKLSSFLFSYLSVQTKKKTVRSLSCNSVPVSAQKPLPTEASVKNGGSSRVRIFSRFPEDMMMLKKSAFKKLIKFYSVPSFPECSSQCGLQLPCCPLQAMV
inactive: SARS-CoV-2 NSP12 = -0.18 | SARS-CoV-2 NSP13 = -0.0179 | SARS-CoV-2 NSP2 = -0.187 | SARS-CoV-2 NSP5 = -0.0322 | SARS-CoV-2 ORF3B -0.216 | SARS-CoV-2 ORF6 = -0.204 | SARS-CoV-2 ORF7A -0.113 | SARS-CoV-2 ORF7B 0.00716 | SARS-CoV-2 ORF9B -0.0184

B3: AIF1, P55008 (protein)
chain: MSQTRDLQGGKAFGLLKAQQEERLDEINKQFLDDPKYSSDEDLPSKLEGFKEKYMEFDLNGNGDIDIMSLKRMLEKLGVPKTHLELKKLIGEVSSGSGETFSYPDFLRMMLGKRSAILKMILMYEEKAREKEKPTGPPAKKAISELP
inactive: SARS-CoV-2 NSP12 = -0.227 | SARS-CoV-2 NSP13 = -0.24 | SARS-CoV-2 NSP2 = 0.1 | SARS-CoV-2 ORF10 = -0.111 | SARS-CoV-2 ORF3B 0.0763 | SARS-CoV-2 ORF6 = -0.00304 | SARS-CoV-2 ORF8 = -0.081

B4: C11orf36, Q2M3A8 (protein)
chain: MDLASEITSATQTSSLCSSGRGHAGYPAPGIVAHGFETHGTARVAQGHLLPPCLLPPPQMPVLAALRDLSRRGSTSSSRSPSRPVSTSASKPCLPASCLGETWSISINLVGSSGHLQSPGAQRDAQRETGCLGPSWLPHHQGRDEELSLSHSAQGEEF
inactive: SARS-CoV-2 NSP12 = -0.136 | SARS-CoV-2 NSP2 = -0.566 | SARS-CoV-2 NSP5 = -0.105 | SARS-CoV-2 ORF10 = 0.0762 | SARS-CoV-2 ORF6 = -0.025 | SARS-CoV-2 ORF7A 0.0182 | SARS-CoV-2 ORF9B -0.0709

B5: MAG, P20916 (protein)
chain: MIFLTALPLFWIMISASRGGHWGAWMPSSISAFEGTCVSIPCRFDFPDELRPAVVHGVWYFNSPYPKNYPPVVFKSRTQVVHESFQGRSRLLGDLGLRNCTLLLSNVSPELGGKYYFRGDLGGYNQYTFSEHSVLDIVNTPNIVVPPEVVAGTEVEVSCMVPDNCPELRPELSWLGHEGLGEPAVLGRLREDEGTWVQVSLLHFVPTREANGHRLGCQASFPNTTLQFEGYASMDVKYPPVIVEMNSSVEAIEGSHVSLLCGADSNPPPLLTWMRDGTVLREAVAESLLLELEEVTPAEDGVYACLAENAYGQDNRTVGLSVMYAPWKPTVNGTMVAVEGETVSILCSTQSNPDPILTIFKEKQILSTVIYESELQLELPAVSPEDDGEYWCVAENQYGQRATAFNLSVEFAPVLLLESHCAAARDTVQCLCVVKSNPEPSVAFELPSRNVTVNESEREFVYSERSGLVLTSILTLRGQAQAPPRVICTARNLYGAKSLELPFQGAHRLMWAKIGPVGAVVAFAILIAIVCYITQTRRKKNVTESPSFSAGDNPPVLFSSDFRISGAPEKYESERRLGSERRLLGLRGEPPELDLSYSHSDLGKRPTKDSYTLTEELAEYAEIRVK
inactive: SARS-CoV-2 NSP12 = -0.0918 | SARS-CoV-2 NSP13 = 0.106 | SARS-CoV-2 NSP2 = -0.2 | SARS-CoV-2 ORF10 = -0.0381 | SARS-CoV-2 ORF9B -0.0043

B6: PATE1, Q8WXA2 (protein)
chain: MDKSLLLELPILLCCFRALSGSLSMRNDAVNEIVAVKNNFPVIEIVQCRMCHLQFPGEKCSRGRGICTATTEEACMVGRMFKRDGNPWLTFMGCLKNCADVKGIRWSVYLVNFRCCRSHDLCNEDL
inactive: SARS-CoV-2 NSP12 = -0.198 | SARS-CoV-2 NSP13 = -0.0304 | SARS-CoV-2 NSP2 = -0.0508 | SARS-CoV-2 NSP6 = 0.145 | SARS-CoV-2 NSP8 = 0.149 | SARS-CoV-2 ORF3B 0.0635 | SARS-CoV-2 ORF6 = -0.082 | SARS-CoV-2 ORF7B -0.124 | SARS-CoV-2 ORF8 = -0.152 | SARS-CoV-2 ORF9B -0.0666 | SARS-CoV-2 S 0.026

Reference: the supplement of paper PMC11741623
